# In PubChem BioAssay (NCATS):
# Values joined by “and” are separate entries in the source; they are usually repeats but may differ in a detail not shown here. Equal entries are not always repeated. This list was built around the results that the source calls inconclusive (neither active nor inactive); the mix of calls is not that of the screen. Where the call is inconclusive, the potency comes from a doubtful curve fit. Active and inactive are the calls of the source. The call rests on the fitted dose curve; in most records, active means well fitted inhibition curve with a large enough effect; inconclusive means small, poorly fitted or top-dose-only effect; inactive means no such curve, though single readings can be large or run the other way.
# Assay: Primary qHTS for small molecule stabilizers of the endoplasmic reticulum resident proteome: Secreted ER Calcium Modulated Protein (SERCaMP) assay (AID 1508630)
# Conditions: SH-SY5Y GLuc-SERCaMP (Gaussia luciferase released on ER calcium loss) secretion, thapsigargin, luminescence; series mostly up to 38.4 µM
# Source text: Assay Provider: Brandon K. Harvey Ph.D.
# National Institute on Drug Abuse, National Institutes of Health, Baltimore, MD
# Endoplasmic reticulum (ER) dysregulation is associated with human pathologies including neurodegenerative, cardiovascular, muscular, and diabetic conditions. Maintenance of ER calcium is critical for functions of the ER and its depletion can lead to loss of ER resident proteins, in a process termed exodosis. Therapeutic compounds capable of attenuating the redistribution of ER proteins under pathological conditions may slow or stop disease progression. To identify such compounds, we performed a quantitative high-throughput screen (qHTS) using the SERCaMP assay, which monitors secretion of ER resident proteins triggered by calcium depletion.
# SERCaMP was initially developed as a reporter of ER calcium homeostasis using a Gaussia luciferase with a modified signal peptide and carboxy-terminus (GLuc-SERCaMP), modifications that confer secretion of the reporter in response to ER calcium depletion (Henderson et al., 2014). The assay was used to screen 9,501 compounds, including a collection of drugs approved by the FDA (US), EMA (EU), NHI (Japan), and HC (Canada) regulatory agencies (Huang et al., 2011). Since the SERCaMP reporter reflects the exodosis phenomenon (Trychta et al., 2018a), compounds identified in the screen have the potential to prevent exodosis by different mechanisms such as stabilizing ER calcium or augmenting ERS retrieval.
# 1. Henderson, M.J., Wires, E.S., Trychta, K.A., Richie, C.T., and Harvey, B.K. (2014). SERCaMP: a carboxy-terminal protein modification that enables monitoring of ER calcium homeostasis. Mol Biol Cell 25, 2828-2839.
# 2. Huang, R., Southall, N., Wang, Y., Yasgar, A., Shinn, P., Jadhav, A., Nguyen, D.T., and Austin, C.P. (2011). The NCGC pharmaceutical collection: a comprehensive resource of clinically approved drugs enabling repurposing and chemical genomics. Sci Transl Med 3, 80ps16.
# 3. Trychta, K.A., Back, S., Henderson, M.J., and Harvey, B.K. (2018a). KDEL Receptors Are Differentially Regulated to Maintain the ER Proteome under Calcium Deficiency. Cell Rep 25, 1829-1840 e1826.
# SEQUENCE No. (1, 2, 3, etc.); […] (e.g., Cells, Incubation, Reagent, etc.); VALUE and DESCRIPTION.
# 1; Reagent; 5 uL; 1000 SH-SY5Y cells per wells
# 3; Compound; 23 nL; Control inhibitor / compound library
# 5; Reagent; 100 nM; Thapsigargin
# 7; Reagent; 1 uL; 0.5x coelenterazine
# 8; Detection; Luminescence; ViewLux imaging system
# NOTES (numbers refer to sequence above)
# 1; SH-SY5Y human neuroblastoma cells stably expressing GLuc-SERCaMP (SH-SY5Y-GLuc-ASARTDL) cells were seeded in 1,536 well white tissue culture treated plates (Corning, Cat# 7464) in DMEM-high glucose-sodium pyruvate (ThermoFisher Scientific, Cat #10569) supplemented with 10% bovine growth serum (Hyclone), 10 U/ml penicillin (Gibco), 10 ug/ml streptomycin (Gibco), and 20 mM HEPES.
# 2; Assay plates were incubated for 5 hour at 37C in a humidified incubator containing 5% CO2.
# 3; qHTS libraries (23 nl, final concentrations of 1.53 uM, 7.67 uM, 38.3 uM) or controls (neutral control: DMSO, positive control: dantrolene) were added using a Kalypsis pin-tool Robotic System equipped with 1536 pinheads.
# 4; Cells were then incubated for 16 hours at 37C, 5% CO2.
# 5; Thapsigargin was added at 100 nM to deplete ER calcium stores.
# 6; Cells were incubated for 4 hour (37 °C, 5% CO2)
# 7; Gaussia luciferase in the medium was measured by adding 1 ul of 0.5x coelenterazine (final concentration 0.07x) prepared in Gaussia Luciferase Glow Assay Buffer (Pierce), without addition of the Cell Lysis Buffer Reagent.
# 8; Luminescence was measured using a ViewLux […] CCD imaging system (Perkin Elmer) equipped with clear filters. […] The same controls were also used for the calculation of the Z' factor, a measure of assay quality control, as previously described (Zhang et al., 1999). […]
# Potency means the concentration at half of the fitted maximal effect; tags describe the fitted curve by direction and shape.
row,SMILES,Potency
1,C[C@H](N)CCP(=O)(O)O,"inconclusive: 11.2 µM [inhibitor, partial curve, poor fit]"
2,O=c1c(CCc2ccccc2)nc2cncnc2n1C1CC1,inactive
3,CN(C)c1ncc2nc(-c3ccccc3)c(=O)n(CCC#N)c2n1,inactive
4,COc1ccc(C(=O)N2CCC3(CCCN(Cc4ccncc4)C3)CC2)cc1,inactive
5,CC[C@@H](C)[C@H](NS(=O)(=O)c1cccc2ccccc12)C(=O)N[C@H](C=O)Cc1c[nH]c2ccccc12,"inconclusive: 10 µM [inhibitor, partial curve, poor fit]"
6,COc1c(O)cc2oc3cc(O)c(CC=C(C)C)c(O)c3c(=O)c2c1CC=C(C)C,inactive
7,C[C@@]12CC[C@@H]3c4ccc(O)cc4C[C@H](CCCCCCCCCS(=O)CCCC(F)(F)C(F)(F)F)[C@H]3[C@@H]1CC[C@@H]2O (stereo not given in full),"inconclusive: 8.91 µM [inhibitor, single point]"
8,O=c1cnc2cnc(N3CCOCC3)nc2n1C[C@H]1CCCO1,"inconclusive: 44.7 µM [inhibitor, full curve]"
9,COc1ccccc1CNc1cc(-c2ccccc2Cl)ncn1,inactive
10,COc1ccc(-n2c(=O)c(CCc3ccccc3)nc3cnc(OC)nc32)cc1,"inconclusive: 28.2 µM [inhibitor, single point]"
11,N#CCCn1c(=O)c(-c2ccccc2)nc2cnc(Oc3ccccc3)nc21,"inconclusive: 28.2 µM [inhibitor, single point]"
12,N#C/C(=C\c1ccc(O)c(O)c1)C(N)=O,"inconclusive: 11.2 µM [inhibitor, partial curve, poor fit] and inconclusive: 35.5 µM [inhibitor, partial curve, poor fit]"
13,COc1cccc(NC(=O)/C=C\c2ccc(Cl)cc2)c1,"inconclusive: 31.6 µM [inhibitor, partial curve, poor fit]"
14,COCC(=O)N1CCC2(CCCN(Cc3nccs3)C2)CC1,inactive
15,CN1CCN(c2nc(-c3cccnc3)nc3ccccc23)CC1,"inconclusive: 28.2 µM [inhibitor, single point]"
16,Cc1noc(C)c1C(=O)N1CCC[C@@]2(CCN(c3ccccn3)C2)C1,inactive
17,Cc1cnc(CNc2nc(-c3cccnc3)nc3ccccc23)cn1,"inconclusive: 10 µM [inhibitor, single point]"
18,O=C(c1cc(C(F)(F)F)cc(C(F)(F)F)c1)N1CCC[C@@]2(CCN(c3ccncc3)C2)C1,"inconclusive: 31.6 µM [inhibitor, single point]"
19,O=C(O)c1ccc2nc(-c3ccccc3)c(-c3ccccc3)nc2c1,"inconclusive: 3.16 µM [inhibitor, full curve, poor fit]"
20,O=C(NCCCCN1CCN(c2cccc(Cl)c2Cl)CC1)c1ccc2c(c1)Cc1ccccc1-2,"inconclusive: 2.24 µM [inhibitor, full curve, poor fit]"

row,SMILES,Potency
1,Cc1cccc(CNc2ncncc2-c2ccccc2CN(C)C)c1,"inconclusive: 31.6 µM [inhibitor, single point]"
2,COCCNc1ncnc2ccc(-c3ccc(N(C)C)cc3)cc12,"inconclusive: 28.2 µM [inhibitor, single point]"
3,COc1ccc(-c2nc3cnc(N4CCN(C)CC4)nc3n(C)c2=O)cc1,"inconclusive: 11.2 µM [inhibitor, single point]"
4,c1nc(NC2CC2)c2cc(-c3ccoc3)ccc2n1,inactive
5,COc1cc2c(cc1OC)C1N(CC2)C(=O)CCC12C(=O)CCCC2=O (stereo not given),inactive
6,Cc1noc(C)c1C(=O)N1CCC2(CC1)CCN(c1ccncc1)CC2,inactive
7,O=C(O)c1cc(N(Cc2ccccc2O)Cc2cc(O)ccc2O)ccc1O,"inconclusive: 35.5 µM [inhibitor, partial curve, poor fit]"
8,COc1ccc(Oc2ncc3nc(-c4cccs4)c(=O)n(CCC#N)c3n2)cc1,"inconclusive: 14.1 µM [inhibitor, partial curve, poor fit]"
9,COc1ccc(CNc2ncnc3ccc(-c4ccc(C(=O)N(C)C)cc4)cc23)c(OC)c1,"inconclusive: 6.31 µM [inhibitor, partial curve, poor fit]"
10,CC(C)CC(NC(=O)NC(CCC(=O)O)C(=O)O)C(=O)O (stereo not given),"inconclusive: 35.5 µM [inhibitor, partial curve, poor fit]"
11,CC(C)[C@@H]1NC(=O)[C@H](Cc2ccccc2)NC(=O)[C@@H](CC(=O)O)NC(=O)CNC(=O)[C@H](CCCNC(=N)N)NC1=O,inactive
12,COC(=O)N1CCC2(CC1)CN(C(=O)Nc1ccccc1)C2,inactive
13,COc1ccc(-n2c(=O)c(CCc3ccccc3)nc3cnc(N4CCNCC4)nc32)cc1,"inconclusive: 14.1 µM [inhibitor, single point]"
14,CCCCCCc1c(C[C@H](N)C(=O)O)o[nH]c1=O,"inconclusive: 3.16 µM [inhibitor, full curve, poor fit]"
15,N#Cc1ccc(CN2CC3(CCN(C(=O)c4csnn4)CC3)C2)cc1,inactive
16,O=C1N=C(O)CN1/N=C\c1ccc(-c2ccc([N+](=O)[O-])cc2)o1,"inconclusive: 4.47 µM [inhibitor, partial curve, poor fit]"
17,CN(C)c1ncnc2ccc(-c3cccc(NS(C)(=O)=O)c3)cc12,"inconclusive: 28.2 µM [inhibitor, single point]"
18,COc1ccccc1-c1cncnc1NCCN1CCOCC1,"inconclusive: 10 µM [inhibitor, partial curve, poor fit]"
19,O=C(Oc1ccccc1)N1CCC2(CCCN(c3cccc(-c4ccccc4)c3)C2)CC1,inactive
20,Fc1ccc(CN(C2=NCCN2)c2c(Cl)cccc2Cl)cc1,"inconclusive: 28.2 µM [inhibitor, single point]"
